# Source: PubChem BioAssay (NCATS)
# “And” between values parts separate entries of the source, which are not always exact repeats. Equal values may be shown once. This list was built around the results that the source calls inconclusive (neither active nor inactive); the mix of calls is not that of the screen. For some of these results: A potency beside an inconclusive call is a rough fit, not a confirmed value. The source made the active and inactive calls. Unless noted, calls follow the shape of the dose curve; as a rule, active = well fitted curve in the direction sought with a large enough effect; inconclusive = small, poorly fitted or top-dose-only effect, or another doubt; inactive = no such curve, though single readings can be large; an effect the other way counts as inactive or inconclusive.
# Legend:
# [1] = qHTS of pediatric cancer cell lines to identify multiple opportunities for drug repurposing: Primary screen for NB-EBc1 cells (AID 1347095); also: potency is read from the fitted curve at half-maximal effect;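 as to activity change, negative = cytotoxic: plate controls were DMSO neutral control for no effect and bortezomib for full effect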
# Method in brief: (§1)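 Plated cells (500-1,000 per well, growth media) were allowed to settle for 5 hours, treated with compound dilutions for 48 hours, then lysed with CellTiter-Glo for 15 min at room temperature before luminescence reading.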
# [2] = qHTS of pediatric cancer cell lines to identify multiple opportunities for drug repurposing: Primary screen for SK-N-SH cells (AID 1347098); also: nearly all actives have a fitted effect of over 65% in size; also: potency is read from the fitted curve at half-maximal effect; as to activity change, negative = cytotoxic: % is scaled to controls: 0 for no effect and ±100 for the full control effect
# Method in brief: (§2)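 Cells (500-1,000/well) rested 5 h, then received compounds for 48 h; metabolically active cells were measured by CellTiter-Glo luminescence. Final concentrations spanned up to 46 µM (MIPE, 11-point) or 0.59 nM-46 µM (NPC, 8-point) in primary screens, 11-point in follow-ups.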
# [3] = qHTS of pediatric cancer cell lines to identify multiple opportunities for drug repurposing: Primary screen for BT-12 cells (AID 1347101); also: nearly all actives have a fitted effect of over 25% in size; also: potency is read from the fitted curve at half-maximal effect;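 as to activity change, negative = cytotoxic: plate controls were DMSO for no effect and bortezomib positive control for full effect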
# Method in brief: as §2
# [4] = qHTS of pediatric cancer cell lines to identify multiple opportunities for drug repurposing: Primary screen for Rh18 cells (AID 1347102); also: potency is read from the fitted curve at half-maximal effect; nearly all actives have a fitted effect of over 65% in size
# Method in brief: as §2
# [5] = qHTS of pediatric cancer cell lines to identify multiple opportunities for drug repurposing: Primary screen for Rh41 cells (AID 1347108); also: potency is read from the fitted curve at half-maximal effect; nearly all actives have a fitted effect of over 70% in size
# Method in brief: as §1
# [6] = qHTS for identification of novel therapeutic agents for treatment of microphthalmiaassociated transcription factor (MiT) renal cell carcinoma (RCC) (AID 1963991; calls by dose curve; also: potency is read from the fitted curve at half-maximal effect); conditions: TFE3-RCC UOK109 viability, CellTiter-Glo, 48 h; active = Z-AUC below -0.8 in all three lines
# Method in brief: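 Three TFE3-fusion RCC cell lines (UOK109, UOK124, UOK145), 500 cells/well, were exposed to the 1912-compound MIPE 4.0 library for 48 hours at 37 C. Viability was read by CellTiter-Glo luminescence, normalised to DMSO (100%) and empty wells (0%), with 11-concentration curve fits.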
# KB-3-1 = assay: Cytotoxic Profiling of Annotated Libraries Using Quantitative High-Throughput Screening (AID 1296008); conditions: Five cell lines viability, CellTiter-Glo ATP luminescence, 48-72 h; max response: active compounds read low; also: nearly all actives have a fitted effect of over 60% in size; also: potency is read from the fitted curve at half-maximal effect; as to max response: % is scaled to controls: 0 for no effect and ±100 for the full control effect
# Method in brief: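 Cytotoxicity was measured as CellTiter-Glo ATP luminescence, read after 10 min at room temperature. Compound treatment of the cells lasted 48 or 72 hr at 37 degrees Celsius in a qHTS format.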
# WaGa = assay: qHTS assay to identify novel small-molecules to repurpose for Merkel cell carcinoma treatment (AID 1296009); conditions: MCC and control cell lines, CellTiter-Glo viability, 72 h; series mostly up to 46 µM; also: potency is read from the fitted curve at half-maximal effect; nearly all actives have a fitted effect of over 60% in size
# Method in brief: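 Cell viability measured by CellTiter-Glo following 72 hr compound treatment at 37 degree celsius, with NPC and MIPE libraries tested in 8- and 11-point concentration series.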
# [7] = target: Cytochrome P450 2D6 (Homo sapiens) (UniProt P10635); assay: Cytochrome P450 family 2 subfamily D member 6 (CYP2D6) small molecule antagonists: luciferase biochemical (cell-free) qHTS assay (AID 1645840; active = well fitted curve in the direction sought with a large enough effect in the repeat runs; inconclusive = weak or mixed curves; inactive = no such curve, though single readings can be large; an effect the other way counts as inactive or inconclusive; also: potency is read from the fitted curve at half-maximal effect; nearly all actives have a fitted effect of over 55% in size)
# Chain of UniProt P10635 (P10635 whole entry, looked up): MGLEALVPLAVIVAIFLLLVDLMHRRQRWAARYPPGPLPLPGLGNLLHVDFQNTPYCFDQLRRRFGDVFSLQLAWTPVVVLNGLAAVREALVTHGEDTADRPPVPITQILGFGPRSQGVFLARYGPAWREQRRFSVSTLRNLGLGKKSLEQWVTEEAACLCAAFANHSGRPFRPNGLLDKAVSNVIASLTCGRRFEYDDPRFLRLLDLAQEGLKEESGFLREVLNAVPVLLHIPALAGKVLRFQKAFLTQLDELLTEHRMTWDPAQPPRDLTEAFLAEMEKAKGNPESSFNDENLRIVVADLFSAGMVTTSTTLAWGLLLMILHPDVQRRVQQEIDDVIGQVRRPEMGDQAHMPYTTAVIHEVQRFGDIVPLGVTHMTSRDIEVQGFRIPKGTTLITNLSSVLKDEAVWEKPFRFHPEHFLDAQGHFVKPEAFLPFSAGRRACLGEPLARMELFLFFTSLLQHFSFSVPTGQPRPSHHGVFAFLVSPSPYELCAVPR
# Method in brief: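 P450-Glo CYP2D6 system: proluciferin substrate converted by enzyme to luciferin, read by luminescence proportional to activity. Enzyme-substrate mix with compound 10 min at room temperature, then NADPH regeneration 1 h before detection reagent.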
# [8] = qHTS of pediatric cancer cell lines to identify multiple opportunities for drug repurposing: Primary screen for DAOY cells (AID 1347090); conditions: DAOY medulloblastoma viability, CellTiter-Glo luminescence, 48 h; activity change, negative = cytotoxic: at 46 µM (top of the series);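 also: plate controls were DMSO for no effect and bortezomib for full effect; nearly all actives have a fitted effect of over 55% in size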
# Method in brief: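 Cell viability, CellTiter-Glo luminescence; 500-1,000 cells/well, 8- or 11-point titration, 48 h compound exposure at 37 degrees C, 5% CO2. Controls: DMSO neutral, bortezomib 2.3 µM final as positive.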
# [9] = qHTS of pediatric cancer cell lines to identify multiple opportunities for drug repurposing: Primary screen for A673 cells (AID 1347092); conditions: A673 Ewing sarcoma viability, CellTiter-Glo ATP luminescence, 48 h; activity change, negative = cytotoxic: at 46 µM (top of the series); also: nearly all actives have a fitted effect of over 45% in size; also: potency is read from the fitted curve at half-maximal effect; as to activity change, negative = cytotoxic: % is scaled to controls: 0 for no effect and ±100 for the full control effect
# Method in brief: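 Luminescence from CellTiter-Glo, taken after 15 min at room temperature, served as the proxy for metabolically active cells following 48 h treatment. Both potency and efficacy were taken from curves fitted to the titration data.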
# [10] = qHTS of pediatric cancer cell lines to identify multiple opportunities for drug repurposing: Primary screen for NB1643 cells (AID 1347099); also: nearly all actives have a fitted effect of over 50% in size; also: potency is read from the fitted curve at half-maximal effect;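 as to activity change, negative = cytotoxic: plate controls were DMSO neutral control for no effect and bortezomib positive control for full effect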
# Method in brief: as §1
# [11] = Primary redox qHTS assay for identification of artifact compounds. (AID 1845223); conditions: Amplex Red/HRP redox cycling with DTT, fluorescence; redox activity (% of DA3003): at 53.8 µM (top of the series); also: potency is read from the fitted curve at half-maximal effect
# Method in brief: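 Redox-cycling detection via DTT (250 uM final) oxidation coupled to Amplex Red (25 uM)/HRP (250 mU/mL) in HBSS. 15 min preincubation plus 30 min after DTT, room temperature. Ex/Em 525/598 nm; 4-parameter Hill fit against DMSO and 10 uM DA3003.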
# [12] = qHTS of pediatric cancer cell lines to identify multiple opportunities for drug repurposing: Primary screen for SK-N-MC cells (AID 1347093); conditions: SK-N-MC viability, CellTiter-Glo luminescence, 48 h; activity change, negative = cytotoxic: at 46 µM (top of the series); also: potency is read from the fitted curve at half-maximal effect;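 as to activity change, negative = cytotoxic: plate controls were DMSO neutral control for no effect and bortezomib for full effect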
# Method in brief: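 Metabolically active cells were quantified by ATP-dependent luminescence (CellTiter-Glo, 15 min at room temperature) following 48 h treatment. Cells had been plated at 500-1,000 per well and settled for 5 h beforehand.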
# [13] = qHTS of pediatric cancer cell lines to identify multiple opportunities for drug repurposing: Primary screen for BT-37 cells (AID 1347094); also: potency is read from the fitted curve at half-maximal effect
# Method in brief: as §1
# [14] = target: Glutathione peroxidase 1 (Homo sapiens) (UniProt P07203); assay: Primary qHTS Assay for Inhibitors of Recombinant Selenoprotein Glutathione Peroxidase 1 (GPX1) (AID 1845191); conditions: activity, negative = inhibition: at 48.8 µM (top of the series); also: potency is read from the fitted curve at half-maximal effect; nearly all actives have a fitted effect of over 65% in size
# Chain of UniProt P07203 (P07203 whole entry, looked up): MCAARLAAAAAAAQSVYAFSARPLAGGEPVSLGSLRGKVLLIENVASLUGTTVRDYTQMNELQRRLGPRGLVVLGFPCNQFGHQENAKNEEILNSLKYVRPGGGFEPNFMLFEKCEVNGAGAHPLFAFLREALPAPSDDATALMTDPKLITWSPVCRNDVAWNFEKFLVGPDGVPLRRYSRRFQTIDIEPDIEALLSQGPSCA
# Method in brief: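 NADPH consumption tracked by fluorescence at 340/450 nm between t=0 and t=15 min, room temperature. Final mix: 10 nM GPX1, 100 nM glutathione reductase, 1 mM GSH, 0.5 mM NADPH, 0.5 mM cumene hydroperoxide, 0.01% BSA; 30 min compound–enzyme preincubation.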
# [15] = test system: Zika virus NS2B-NS3 protease (linked construct); assay: Primary screen NINDS Rhodamine qHTS for Zika virus inhibitors (AID 1347160); conditions: activity change, negative = inhibition: at 57.1 µM (top of the series) unless noted; also: % is scaled to controls: 0 for no effect and ±100 for the full control effect; nearly all actives have a fitted effect of over 55% in size
# Method in brief: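 Aprotinin served as in-plate control. Conditions: 25 nM linked NS2B-NS3, pH 8.0 Tris buffer, titrated compounds, 15 min preincubation and 15 min reaction with 1.5 microM Rhod110 substrate at room temperature.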
# [16] = qHTS assay to identify inhibitors of the type 1 interferon - major histocompatibility complex class I in skeletal muscle: Counter screen cell viability and HiBit confirmation (AID 1347412); conditions: iHSKM muscle cells + IFN-b, HiBiT or CellTiter-Glo, 24 h; also: nearly all actives have a fitted effect of over 60% in size; also: potency is read from the fitted curve at half-maximal effect; as to activity change, negative = inhibition: % is scaled to controls: 0 for no effect and ±100 for the full control effect
# Method in brief: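 Luminescence read-out: Nano-Glo HiBiT lytic signal from C-terminally HiBiT-tagged HLA-B in CRISPR-edited human myoblasts, plus CellTiter Glo ATP as viability counter screen. IFN-beta 4.0 ng/ml; 24 hrs treatment at 37 C, 5% CO2.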
# Tags tell the direction and shape of the fitted curve.
smiles,measurement,setting,value
C[C@]12CC[C@@H]3c4ccc(O)cc4CC[C@H]3[C@H]1CC[C@H]2O,Potency,[1],active: 9.35 µM
same,Potency,[2],"inconclusive: 24.1 µM [cytotoxic, partial curve]"
same,Potency,[3],"inconclusive: 27.3 µM [cytotoxic, single point]"
same,Potency,[4],"inconclusive: 16.6 µM [cytotoxic, partial curve]"
same,Potency,[5],"inconclusive: 23.5 µM [cytotoxic, partial curve]"
same,Potency,[6],"inconclusive: 13.2 µM [falling, partial curve]"
same,Potency,KB-3-1,active: 11.8 µM
same,Potency,WaGa,"inconclusive: 20.9 µM [inhibitor, single point]"
CC(C)(C)NC(=O)[C@@H](c1cccnc1)N(C(=O)c1ccco1)c1ccc(C(C)(C)C)cc1,Potency,[7],"inconclusive: 23.9 µM [inhibitor, single point]"
O=S(=O)(c1cccc2cnccc12)N1CCCNCC1,Potency,[8],inactive
same,Potency,[9],"inconclusive: 21.1 µM [cytotoxic, single point]"
same,Potency,[1],inactive
same,Potency,[2],"inconclusive: 27.1 µM [cytotoxic, partial curve] and inconclusive: 43.3 µM [cytotoxic, single point]"
same,Potency,[6],inconclusive: 0.0166 µM
same,max response,KB-3-1,inactive: -15.9%
same,outcome,KB-3-1,inactive
COc1ccc(C[C@@H](C)[C@@H](C)Cc2ccc(OC)c(OC)c2)cc1OC,Potency,[9],active: 0.935 µM
same,Potency,[1],active: 0.118 µM
same,Potency,[10],"inconclusive: 14.8 µM [cytotoxic, single point]"
same,Potency,[3],active: 0.863 µM
same,Potency,[5],"inconclusive: 0.833 µM [cytotoxic, full curve]"
same,Potency,[7],"inconclusive: 16.9 µM [inhibitor, partial curve, poor fit]"
same,Potency,[6],"inconclusive: 1.32 µM [falling, full curve]"
same,Potency,KB-3-1,active: 2.96 µM
CCC1C(=O)N(C)c2cnc(Nc3ccc(C(=O)NC4CCC(N5CCN(CC6CC6)CC5)CC4)cc3OC)nc2N1C(C)C (stereo not drawn),Potency,[11],"inconclusive: 2.67 µM [activator, full curve, poor fit]"
same,Potency,KB-3-1,active: 0.0052 µM
CCCNC(C)(C)COC(=O)c1ccccc1,Potency,[12],"inconclusive: 0.0027 µM [cytotoxic, full curve, poor fit]"
same,Potency,[10],inactive
O=C(Nc1cccc(Nc2ncc(Br)c(NCCc3cnc[nH]3)n2)c1)N1CCCC1,Potency,[13],active: 21.7 µM
same,Potency,[1],"inconclusive: 9.35 µM [cytotoxic, partial curve]"
same,Potency,[2],active: 13.6 µM
same,Potency,[10],"inconclusive: 18.7 µM [cytotoxic, partial curve, poor fit]"
same,Potency,[4],active: 9.35 µM
same,Potency,[14],"inconclusive: 29 µM [inhibitor, single point]"
same,Potency,[6],"inconclusive: 20.9 µM [falling, partial curve]"
same,Potency,KB-3-1,active: 1.32 µM
C/C=C/c1ccc2oc(-c3ccc(O)c(OC)c3)c(C)c2c1,Potency,[11],inactive
CN(C)CC1CCOC1(c1ccccc1)c1ccccc1 (stereo not drawn),Potency,[15],inactive
CCOC(=O)NNc1nncc2ccccc12,Potency,[10],inactive
same,Potency,[3],inactive
same,Potency,[7],"inconclusive: 43.6 µM [inhibitor, partial curve, poor fit]"
Cc1ccccc1-c1cc(N2CCN(C)CC2)ncc1N(C)C(=O)C(C)(C)c1cc(C(F)(F)F)cc(C(F)(F)F)c1,Potency,[11],inactive
COC(=O)[C@H]1[C@H]2C[C@@H]3c4[nH]c5cc(OC)ccc5c4CCN3C[C@H]2C[C@@H](OC(=O)COc2ccc(OC)cc2)[C@@H]1OC,Potency,[9],inactive
same,Potency,[12],"inconclusive: 26.6 µM [cytotoxic, partial curve, poor fit]"
same,Potency,[2],inactive
CCC(C(=O)OCCOCCN(CC)CC)c1ccccc1 (stereo not drawn),Potency,[12],inactive
OCCNC1CCCc2c1[nH]c1ccc(-c3ccccc3)cc21 (stereo not drawn),Potency,[8],inactive
same,Potency,[12],"inconclusive: 37.2 µM [cytotoxic, single point]"
same,Potency,[1],"inconclusive: 20.9 µM [cytotoxic, partial curve, poor fit]"
same,Potency,[2],"inconclusive: 34.1 µM [cytotoxic, single point]"
same,Potency,[3],active: 30.6 µM
same,Potency,[4],active: 20.9 µM
same,Potency,[5],"inconclusive: 18.7 µM [cytotoxic, partial curve]"
same,Potency,[7],active: 15.1 µM
same,Potency,[6],"inconclusive: 5.9 µM [falling, partial curve]"
same,Potency,KB-3-1,"inconclusive: 33.2 µM [inhibitor, single point]"
same,Potency,[16]; HiBiT,"inconclusive: 14 µM [inhibitor, partial curve, poor fit]"
same,"activity change, negative = inhibition","[16]; Viability, at 45.9 µM (top of the series)",inactive: -29.7%
